Data from PubChem BioAssay AID485281 (National Center for Advancing Translational Sciences (NCATS), 2010).
The whole screen tested about 350,000 compounds, of which about 260 (0.074%) were called active. This list was built around the results that the source calls inconclusive (neither active nor inactive); the mix of calls is not that of the screen. The call rests on the fitted dose curve; in most records, active means well fitted inhibition curve with a large enough effect; inconclusive means small, poorly fitted or top-dose-only effect; inactive means no such curve, though single readings can be large or run the other way. A potency beside an inconclusive call is a rough fit, not a confirmed value.
Further: nearly all actives have a fitted effect of over 20% in size.
On the % scale 0 is the no-effect control and ±100 the full control effect; potency means the concentration at half of the fitted maximal effect; tags describe the fitted curve by direction and shape.

The compounds below were run against Ferritin light chain (Equus caballus) (UniProt P02791) (assay: qHTS Assay for Identification of Novel General Anesthetics). Settings: apoferritin/1-aminoanthracene competitive binding, fluorescence; activity change, negative = displacement: at 77.5 µM (top of the series).
UniProt P02791, sequence (P02791 whole entry, looked up): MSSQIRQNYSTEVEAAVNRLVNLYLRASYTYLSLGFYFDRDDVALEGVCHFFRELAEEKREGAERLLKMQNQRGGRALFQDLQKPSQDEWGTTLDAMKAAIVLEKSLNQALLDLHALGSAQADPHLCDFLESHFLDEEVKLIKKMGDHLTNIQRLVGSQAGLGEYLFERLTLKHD
Method in brief: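 Concentration-response curves derived by four-parameter Hill fitting of normalized fluorescence, where compounds displaced 1-AMA from 10 uM horse apoferritin following a brief 10 min room-temperature incubation; propofol titration acted as positive control.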
For Oc1ccc(C(=S)N2CCN(Cc3ccccc3)CC2)cc1, the Potency was “inactive”.
CCCCCCc1nnc(NC(=O)OCC)s1 was tested, and the Potency was inconclusive: 31.6 µM [inhibitor, partial curve].
For O=C(CSc1nnnn1-c1ccc(F)cc1)c1ccc(O)c(O)c1, the Potency was inconclusive: 56.2 µM [inhibitor, single point].
With CCc1ccc2oc(C(=O)NCc3ccncc3)c(C)c2c1 the Potency was “inactive”.
For CC12CCC(C(=O)n3c1nc1ccccc13)C2(C)C (configuration not stated), the Potency was inconclusive: 25.1 µM [inhibitor, partial curve].
With O=C(c1ccccc1)c1nn(-c2ccccc2)c(=O)cc1C(F)(F)F the Potency was inconclusive: 39.8 µM [inhibitor, partial curve].
C/C(=N\NC(=O)COc1ccc(C(C)(C)C)cc1)c1ccc(N2CCOCC2)cc1 was tested, and the Potency was inconclusive: 31.6 µM [inhibitor, single point].
With O=c1c2c3c(sc2nnn1CCCCOc1ccc(Cl)cc1)CCCC3 the Potency was inconclusive: 50.1 µM [inhibitor, partial curve, poor fit].
CSc1ccc(Cc2ccc(Cl)cc2Cl)nn1 was tested, and the Potency was inconclusive: 39.8 µM [inhibitor, partial curve].
For CCCN(CCC)Cc1c(C(=O)N/N=C/C(C)=C\c2ccco2)nnn1-c1nonc1N, the Potency was inconclusive: 11.2 µM [inhibitor, partial curve].
N#CC1=C2SCCN2C(=O)C(C#N)C12CCCCC2 (configuration not stated) was tested, and the Potency was inconclusive: 35.5 µM [inhibitor, partial curve].
With COc1ccccc1CNC(=O)COC(=O)c1cc(-c2ccco2)nc2ccccc12 the Potency was “inactive”.
In the case of O=C(c1cc(-c2ccco2)on1)N1CCc2ccccc2C1, the Potency is reported as inconclusive: 22.4 µM [inhibitor, partial curve].
In the case of O=C(O)c1ccc(CS(=O)c2cccc(C(F)(F)F)c2)o1 (configuration not stated), the Potency is reported as inconclusive: 20 µM [inhibitor, partial curve].
In the case of C/C(=N\NC(=O)C(C)Sc1ccccc1)c1ccc([N+](=O)[O-])cc1 (configuration not stated), the Potency is reported as inconclusive: 50.1 µM [inhibitor, single point].
For COc1ccc(Cn2ccn(CC(=O)Nc3cc(C)ccc3C)c(=O)c2=O)cc1, the Potency was inconclusive: 17.8 µM [inhibitor, partial curve].
In the case of COc1cc(C2=NOC(C(=O)NCc3ccco3)C2)cc(OC)c1OC (configuration not stated), the Potency is reported as “inactive”.
Cc1cc(C(=O)COc2ccccc2C(N)=O)c(C)n1CC1CCCO1 (configuration not stated) was tested, and the Potency was “inactive”.
With CCc1cccc(OCCCCNCCCOC)c1 the Potency was “inactive”.
For O=C(COC(=O)COc1cccc(F)c1)NCCC1=CCCCC1, the Potency was inconclusive: 31.6 µM [inhibitor, single point].
With CN1CCN(S(=O)(=O)c2ccc(NC(=S)NC(=O)c3ccc(Cl)cc3)cc2)CC1 the Potency was inconclusive: 8.91 µM [inhibitor, partial curve, poor fit].
With Cc1cccc(C(=O)NC(=S)NNC(=O)c2cccs2)c1 the Potency was “inactive”.
In the case of O=Nc1c(O)n(Cc2ccc(Cl)cc2Cl)c2ccccc12, the Potency is reported as inconclusive: 35.5 µM [inhibitor, partial curve].
In the case of O=C(NCC[C@@H]1C[C@@H]2C=C[C@H]1C2)c1cc(COc2ccc(F)cc2F)on1, the Potency is reported as inconclusive: 50.1 µM [inhibitor, single point].
For CCn1c2ccccc2c2cc(NC(=O)COC(=O)c3cc(S(N)(=O)=O)c(Cl)cc3Cl)ccc21, the Potency was inconclusive: 12.6 µM [inhibitor, partial curve].
With CCCOc1ccc(C2C(=O)N(C3CCCCCC3)CC(=O)N2C(C)C)cc1OC (configuration not stated) the Potency was “inactive”.
For CC1(c2nnc(Cc3ccccc3)o2)CC(c2ccc([N+](=O)[O-])cc2)=NO1 (configuration not stated), the Potency was inconclusive: 50.1 µM [inhibitor, single point].
COc1ccc(C(=O)NCC(=O)N/N=C(\C)Cc2ccccc2)cc1 was tested, and the Potency was inconclusive: 22.4 µM [inhibitor, single point].
In the case of O=C(Nc1ccccc1)OCCCc1ccccc1, the Potency is reported as inconclusive: 28.2 µM [inhibitor, partial curve].
O=C(CC(c1ccccc1)c1ccccc1)OCn1nnc2ccccc2c1=O was tested, and the Potency was inconclusive: 44.7 µM [inhibitor, partial curve].
For Oc1ccc(C2=NN(c3ccccc3)C(c3ccc(F)cc3)C2)cc1 (configuration not stated), the Potency was “inactive”.
For COc1cc(C(C)=O)ccc1COc1ccc(C(=O)OCC(=O)NC(C)(C)C)cc1OC, the Potency was inconclusive: 20 µM [inhibitor, partial curve].
In the case of Clc1ccc(C2=NNC(=NCc3ccccc3)SC2)cc1, the Potency is reported as inconclusive: 17.8 µM [inhibitor, partial curve].
With Cc1cn2c(=O)cc(COC(=O)COc3ccc(C)c(C)c3)nc2s1 the Potency was inconclusive: 25.1 µM [inhibitor, partial curve].
For O=C(NCC(=O)N1CCCC1)c1ccc(Br)o1, the Potency was “inactive”.
Cc1occc1C(=O)NC1CCCc2ccccc21 (configuration not stated) was tested, and the Potency was inconclusive: 35.5 µM [inhibitor, partial curve].
For CC(C)(C)c1ccc(OCCC(=O)Nc2cccc(S(=O)(=O)N3CCOCC3)c2)cc1, the Potency was inconclusive: 4.47 µM [inhibitor, full curve].
In the case of Cc1ccc(CNC(=O)c2ccc3c(c2)NC(=O)C(CS(=O)(=O)Cc2cccc(C)c2)N3)cc1 (configuration not stated), the Potency is reported as inconclusive: 15.8 µM [inhibitor, partial curve].
N#CCSc1nn(-c2ccc(F)cc2)c(=S)s1 was tested, and the Potency was inconclusive: 35.5 µM [inhibitor, partial curve].
With Cc1ccc(Cl)cc1NC(=O)Cn1nnc2sc3c(c2c1=O)CCC(C(C)(C)C)C3 (configuration not stated) the Potency was inconclusive: 20 µM [inhibitor, partial curve].
For O=C(c1ccccc1F)N1CCN=C1SCc1cccnc1, the Potency was inconclusive: 56.2 µM [inhibitor, single point].
COc1ccc(N(CC(=O)Nc2ccccc2C(N)=O)S(=O)(=O)c2ccc(C)c([N+](=O)[O-])c2)cc1 was tested, and the Potency was inconclusive: 10 µM [inhibitor, partial curve].
In the case of CCOC(=O)COc1ccccc1/C=C\[N+](=O)[O-], the Potency is reported as inconclusive: 35.5 µM [inhibitor, single point].
For Cn1c(SCC(=O)N(Cc2ccccc2)C(C)(C)C)nc2ccccc21, the Potency was inconclusive: 8.91 µM [inhibitor, partial curve].
With Cc1c(NS(=O)(=O)c2cccs2)cccc1-c1nc2cccnc2s1 the Potency was inconclusive: 39.8 µM [inhibitor, single point].
With Cc1ccc(S(=O)(=O)Nc2ccc(C(=O)N3CCCC3)cc2)cc1 the Potency was “inactive”.
CC(C)C[C@H](NC(=O)c1nc[nH]c1C(=O)NCc1ccccc1)C(=O)OC(C)(C)C was tested, and the Potency was inconclusive: 3.98 µM [inhibitor, full curve, poor fit].
CCOc1ccc(/C=N/NC(=O)CC(=O)NCc2ccccc2)cc1 was tested, and the Potency was inconclusive: 10 µM [inhibitor, partial curve].
With COCC(C)n1c(C)cc(C(=O)COC(=O)c2ccc3ncsc3c2)c1C (configuration not stated) the Potency was inconclusive: 31.6 µM [inhibitor, partial curve].
In the case of COc1cc(/C=C2/SC(=S)N(Cc3ccccc3)C2=O)ccc1O, the Potency is reported as “inactive”.
For CCOC(=O)C1=C(C)N=C2c3ccccc3C(=O)C2C1c1ccc(C)cc1 (configuration not stated), the Potency was inconclusive: 6.31 µM [inhibitor, full curve, poor fit].
For O=C(COC(=O)Cc1ccsc1)NC1CCCCCC1, the Potency was inconclusive: 17.8 µM [inhibitor, partial curve].
COc1ccccc1C(=O)Nc1ccc(Br)cc1C was tested, and the Potency was inconclusive: 25.1 µM [inhibitor, partial curve].
In the case of COC(=O)[C@H](Cc1ccccc1)NC(=O)[C@@]1(C)C[C@@H]1[C@@H](NC(=O)OCc1ccccc1)c1ccccc1, the Potency is reported as “inactive”.
For CCOCCCNCc1ccc(OCc2ccccc2C)c(OC)c1, the Potency was inconclusive: 7.94 µM [inhibitor, partial curve].
O=C(N/N=C/c1ccncc1)c1cc2ccccc2cc1O was tested, and the Potency was inconclusive: 22.4 µM [inhibitor, partial curve].
With O=S(=O)(Nc1ccc(O)c(Sc2nc3ccccc3s2)c1)c1ccc(F)cc1 the Potency was inconclusive: 56.2 µM [inhibitor, partial curve].
With O=C(Cn1cccc1C(=O)c1ccccc1)NCc1ccc2c(c1)OCO2 the Potency was inconclusive: 17.8 µM [inhibitor, partial curve].
In the case of CCS(=O)(=O)N1N=C(c2cccc(NS(C)(=O)=O)c2)CC1c1ccccc1 (configuration not stated), the Potency is reported as “inactive”.
In the case of CCOC(=O)c1oc2ccc(S(=O)(=O)n3nc(-c4cc(OC)c(OC)c(OC)c4)cc3N)cc2c1C, the Potency is reported as inconclusive: 35.5 µM [inhibitor, partial curve].
O=C(COC(=O)C1CCN(S(=O)(=O)c2cc([N+](=O)[O-])ccc2Cl)CC1)Nc1ncc(Cl)cc1Cl was tested, and the Potency was inconclusive: 22.4 µM [inhibitor, partial curve].
O=C(CCN1C(=O)c2ccccc2C1=O)N1CCN(Cc2ccc(Cl)cc2Cl)CC1 was tested, and the Potency was inconclusive: 25.1 µM [inhibitor, partial curve].
For Cc1ccc(-c2nn(CC(=O)Nc3cccnc3)c(=O)c3ccccc23)cc1, the Potency was inconclusive: 17.8 µM [inhibitor, partial curve].
In the case of CCOc1ccc(S(=O)(=O)Nc2ccc3c(c2)OCO3)cc1, the Potency is reported as “inactive”.
With Cc1ccccc1CN1CCSc2sccc2C1=O the Potency was inconclusive: 11.2 µM [inhibitor, partial curve].
COc1ccc(-c2nc(CS(=O)(=O)CC(=O)NCc3cccc(F)c3)c(C)o2)cc1 was tested, and the Potency was inconclusive: 10 µM [inhibitor, partial curve].
For CCCSc1nnc(N2C(=O)C(O)=C(C(=O)c3ccco3)C2c2ccccc2F)s1 (configuration not stated), the activity change, negative = displacement was inconclusive: -24.1% [inhibitor].
